The source of these data is patent US20240174760A1 (ZHEJIANG NANOMAB TECHNOLOGY CENTER, published 2024).

A word on the Kd: it is the concentration at which binding is half-saturated. Read a low Kd as higher affinity. Broadly, the koff is a measure of how fast the partners let go of each other. Low readings indicate a long-lived complex, high ones a short-lived complex. Broadly, the kon is the second-order rate constant of association. Lower therefore signals slow association.

Bounds are passed on as bounds.

First the molecules themselves.
T1: biotin-BAFFR (Acrobiosystems, BAR-H5257) (human, UniProt Q96RJ3 7-71, limits assumed, biotin)
T1 construct: Bought protein; also called human BAFFR
T1 sequence (looked up): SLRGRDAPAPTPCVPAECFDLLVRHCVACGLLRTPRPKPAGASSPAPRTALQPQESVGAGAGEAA

T2: mouse BCMA his tag (Acrobiosystems, BCA-M52H3) (mouse, UniProt O88472 1-49)
T2 construct: Bought protein; also called murine BCMA; not shown: his tag
T2 chain (looked up): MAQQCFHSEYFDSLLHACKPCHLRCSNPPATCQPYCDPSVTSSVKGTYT

T3: human BCMA his tag protein (Acrobiosystems, BCA-H522y) (human, UniProt Q02223 1-54)
T3 construct: Bought protein; also called BCMA/TNFR-His; human recombinant BCMA his tag; not shown: his tag
T3 sequence (looked up): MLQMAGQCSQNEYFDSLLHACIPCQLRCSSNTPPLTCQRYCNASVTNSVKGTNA

T4: biotin-TACI (Acrobiosystems, TAI-H82F6) (human, UniProt O14836 2-166, limits assumed, biotin)
T4 construct: Bought protein; also called human TACI
T4 sequence (looked up): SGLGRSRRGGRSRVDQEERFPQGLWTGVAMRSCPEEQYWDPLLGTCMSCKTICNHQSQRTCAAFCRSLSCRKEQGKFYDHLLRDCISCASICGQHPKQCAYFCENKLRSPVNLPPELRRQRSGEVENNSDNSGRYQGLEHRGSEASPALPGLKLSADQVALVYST

B1: NB-90 (Fc fusion)
heavy: QVQLVESGGGLVQPGESLRLSCAASGFTFSPSAMSWARQAPGKGLEWVSSIYGDGNAYYSDSMKGRFTISRDNAKNTVYLQMNSLKPEDTALYYCAIGRWYEGRKKEEGLWGQGTQVTVAS[human IgG1 Fc with changes not written out]
notes: also called NB-90 antibody; VHH-hIgG4
B2: NB-27 (Fc fusion)
heavy: EVQLVESGGGLVQPGGSLRLSCAASGSISSIYAMGWYRQAPGKLRGLVAAITSGGNTFYADSVKGRFTISRDNAKNTVYLQMNSLKPEDTAVYDCNAAPWGSYSPGPGDIASWGQGTQVTVSS[human IgG1 Fc with changes not written out]
notes: also called NB-27 antibody; VHH-hIgG4
B3: NB-53 (Fc fusion)
heavy: QVQLVESGGGLVQPGGSLRLSCAASGFTFSPSAMSWARQAPGKGLEWVSSIYPDGSTLYADSMKGRFTISRDNAKNTVSLQMNSLKPEDTAVYYCAIGLAPGYRDPNLRGQGTQVTVSS[human IgG1 Fc with changes not written out]
notes: also called NB-53 antibody; VHH-hIgG4
B4: NB-84 (Fc fusion)
heavy: QVQLVESGGGLVQPGGSLRLSCAASGFTFSSSAMSWARQAPGKGLEWVSSIYPDGTAYYADSMKGRFAISRDNARNTVYLQMNSLKPEDTALYQCAIGRWYDQRKKEPGLWGQGTQVTISS[human IgG1 Fc with changes not written out]
notes: also called NB-84 antibody; VHH-hIgG4
B5: NB-100 (Fc fusion)
heavy: QVQLVESGGGLVQPGGSLRLSCAASGFTFSSSAMSWARQAPGKGLEWVSSIYPDGTAYYADSMKGRFAISRDNARNTVYLQMNSLKPEDTALYQCAVGRWYEQRKKEPGLWGQGTQVTISS[human IgG1 Fc with changes not written out]
notes: also called NB-100 antibody; VHH-hIgG4
B6: NB-1 (Fc fusion)
heavy: EVQLVESGGGLVQPGGSLRLSCAASGFTFRSSAMSWARQAPGKGLEWVSDIYPDGRTDYADSIKGRFTMSRDNAKNTVYLLMDSLKPEDTAVYHCQVGRYVSGVYYQPRGQGTQVTVSS[human IgG1 Fc with changes not written out]
notes: also called NB-1 antibody; VHH-hIgG4
B7: NB-51 (Fc fusion)
heavy: QVQLVESGGGLAQPGGSLRLSCAASGFTFSSSAMSWARQAPGKGLEWVSDIYPDGSAYYADSMKGRFTISRDNAKNTVYLQMDSLKPEDTAVYHCQVGRYVSGVDYQPRGQGTQVTVSS[human IgG1 Fc with changes not written out]
notes: also called NB-51 antibody; VHH-hIgG4
B8: NB-79 (Fc fusion)
heavy: EVQLVESGGGSVQPGGSLRLSCAASGFTFSPSAMSWARQAPGKGFEWVSSIYGDGRAYYADSMKGRFTISRDNAKHTVYLQMNSLKPEDTALYYCGIGRWYDQREKEKDLWGQGTQVTVSS[human IgG1 Fc with changes not written out]
notes: also called NB-79 antibody; VHH-hIgG4
B9: NB-352 (Fc fusion)
heavy: QVQLVESGGGLVQPGGSLRLSCAASGFTFSPSAMSWARQAPGKGLEWVASIYGDGRPYYADSMKGRFTISRDNAKNTVYLQMNSLKPEDTALYYCAVGLWYEKREKEKDLWGQGTQVTVSS[human IgG1 Fc with changes not written out]
notes: also called NB-352 antibody; VHH-hIgG4
B10: NB-102 (Fc fusion)
heavy: QVQLVESGGDLVQPGGSLRLSCAASGFTFSPSAMSWARQAPGKGFEWVSTIYPDGRTYYSDSMKGRFTISRDNAKNTVYLQMHSLKPEDTALYYCGIGRWYENREKEKDLWGQGTQVTVSS[human IgG1 Fc with changes not written out]
notes: also called VHH-hIgG4
B11: NB-257 (Fc fusion)
heavy: EVQLVESGGGLVQPGGSLRLSCAASGFTFSPSAMSWARQAPGKGFEWVSSIYSDGRAYYADTMKGRFTISRDNAKNTVYLQMNSLRPEDTALYYCGIGRWYEKREKEKGFWGQGTQVTVSS[human IgG1 Fc with changes not written out]
notes: also called VHH-hIgG4
B12: NB-36 (Fc fusion)
heavy: QVQLVESGGGLVQPGGSLRLSCAASGFTFSSSAMSWARRPPGKGLEWVSDIYPDGSTTYADSMKGRFTISRDNAKNTVYLEIYSLKPEDTAVYYCVIGRRGYAMGDRRLRGQGTQVTVSS[human IgG1 Fc with changes not written out]
notes: also called NB-36 antibody; VHH-hIgG4
B13: NB-71 (Fc fusion)
heavy: EVQLVESGGGLVQPGGSLRLSCAASGFTFSSSAMSWARQAPGKGLEWVSDIYPDGTPTYADSMEGRFTISRDNAKNTVHLQIDSLKPEDTAVYYCVVGRRGYAMGDRALRGQGTQVTVSS[human IgG1 Fc with changes not written out]
notes: also called NB-71 antibody; VHH-hIgG4
B14: NB-367 (Fc fusion)
heavy: QVQLVESGGGLVQPGGSLRLSCAASGFTFSPSAMSWARRAPGKGLEWVSSIYGEGSTVYADSMKDRFTISRDNAKNTVYLQMNSLKPEDTAVYYCGVGRWYEGRQYEHDYWGQGTLVTVSS[human IgG1 Fc with changes not written out]
notes: also called NB-367 antibody; VHH-hIgG4
B15: NB-65 (Fc fusion)
heavy: QVQLVESGGGLVQPGGSLRLSCAASGFTFSSSAMSWARQAPGKELEWVSAIYSDGSTYYADSVKGRFTISRDNAKNTIYLQMNSLKPEDTANYICAIGDVRGRWDSRPRHEWTYWGQGTQVTVSS[human IgG1 Fc with changes not written out]
notes: also called NB-65 antibody; VHH-hIgG4

For the first assay, the target named is T1, biotin-BAFFR (Acrobiosystems, BAR-H5257). Description: ELISA, antibody coated, biotin-BAFFR in solution. (An ELISA detects its analyte on a solid surface through an enzyme-linked reagent.)
Take B1: the binding result was “no binding (tested: 4 µg/mL)”.
Consider B2, for which the binding result is “no binding (tested: 4 µg/mL)”.
Turning to B3, the binding result is reported as “no binding (tested: 4 µg/mL)”.
Take B4: the binding result is “no binding (tested: 4 µg/mL)”.
For B5, the binding result was “no binding (tested: 4 µg/mL)”.
Turning to B6, the binding result is listed as “no binding (tested: 4 µg/mL)”.
As for B7, the binding result is “no binding (tested: 4 µg/mL)”.
The same measure, in the same setting: then B8, with “no binding (tested: 4 µg/mL)”; and B9, with “no binding (tested: 4 µg/mL)”; and B10, with “no binding (tested: 4 µg/mL)”.
Consider B11, for which the binding result is given as “no binding (tested: 4 µg/mL)”.
As to B12, the binding result is “no binding (tested: 4 µg/mL)”.
Same read-out and setting: then B13, with “no binding (tested: 4 µg/mL)”.
B14: the binding result was “no binding (tested: 4 µg/mL)”.
Regarding B15, the binding result is recorded as “no binding (tested: 4 µg/mL)”.

Another assay addresses T2, mouse BCMA his tag (Acrobiosystems, …). The assay is described as follows: ELISA on coated mouse BCMA his tag (+ = OD450 <= 1.0).
In turn, B2 came in with an OD450 of at most 1 od.
Consider B6, for which the OD450 is at most 1 od.

Another assay concerns the target T3, human BCMA his tag protein …. Description: SPR Biacore T200, antibody captured on protein A, BCMA His analyte, 1:1 fit. Background: In SPR one partner is held on a chip, and binding of the other changes the refractive index at the surface.
For B8, the Kd is 0.29 nM, the koff came to 0.00164 s⁻¹ and the kon came out at 5.67e+06 M⁻¹ s⁻¹.

In the next assay the target is T5, cynomolgus BCMA his tag (Acrobiosystems, BCA-C52H7) (cynomolgus, UniProt A0A2K5UD97 1-53).
T5 construct: Bought protein; also called Cyno BCMA his tag; not shown: his tag
T5 sequence (A0A2K5UD97 entry or part of it): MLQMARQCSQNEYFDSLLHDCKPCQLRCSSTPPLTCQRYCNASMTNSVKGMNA
The assay is described as follows: ELISA on coated cynomolgus BCMA his tag.
With B1, the binding result is “no binding (tested: 2 µg/mL)”.
Regarding B2, the binding result was “no binding (tested: 2 µg/mL)”.
The same measure, in the same setting: then B3, with “no binding (tested: 2 µg/mL)”.
The same measure, in the same setting: then B4, with “no binding (tested: 2 µg/mL)”; and B5, with “no binding (tested: 2 µg/mL)”; and B6, with “no binding (tested: 2 µg/mL)”.
Same read-out and setting: in the case of B7 it was “no binding (tested: 2 µg/mL)”; in that of B8, “no binding (tested: 2 µg/mL)”; in that of B9, “no binding (tested: 2 µg/mL)”.
As for B10, the binding result is recorded as “no binding (tested: 2 µg/mL)”.
The same measure, in the same setting: in the case of B11 it was “no binding (tested: 2 µg/mL)”; in that of B12, “no binding (tested: 2 µg/mL)”; in that of B13, “no binding (tested: 2 µg/mL)”.
Take B14: the binding result was “no binding (tested: 2 µg/mL)”.
Regarding B15, the binding result was “no binding (tested: 2 µg/mL)”.

A further assay deals with T2, mouse BCMA his tag (Acrobiosystems, …). Description: ELISA on coated mouse BCMA his tag (++ = OD450 > 1).
On to B1, for which the OD450 was above 1 od.
Molecule B3 displayed an OD450 above 1 od.
B4 yielded an OD450 above 1 od.
The molecule B5 returned an OD450 above 1 od.
Regarding B7, the OD450 was above 1 od.
Molecule B8 came in with an OD450 above 1 od.
The molecule B9 showed an OD450 above 1 od.
B10 displayed an OD450 above 1 od.
For B11, the OD450 was above 1 od.
Turning to B12, the OD450 is above 1 od.
In turn, B13 registered an OD450 above 1 od.
Molecule B14 returned an OD450 above 1 od.
The molecule B15 had an OD450 above 1 od.

For a further assay, the target named is T4, biotin-TACI (Acrobiosystems, TAI-H82F6). Description: ELISA, antibody coated, biotin-TACI in solution.
As to B1, the binding result is given as “no binding (tested: 4 µg/mL)”.
For the molecule B2, the binding result is reported as “no binding (tested: 4 µg/mL)”.
As for B3, the binding result is recorded as “no binding (tested: 4 µg/mL)”.
On to B4, for which the binding result is recorded as “no binding (tested: 4 µg/mL)”.
Regarding B5, the binding result is “no binding (tested: 4 µg/mL)”.
With B6, the binding result is on record as “no binding (tested: 4 µg/mL)”.
Turning to B7, the binding result is listed as “no binding (tested: 4 µg/mL)”.
B8: the binding result was “no binding (tested: 4 µg/mL)”.
Consider B9, for which the binding result is listed as “no binding (tested: 4 µg/mL)”.
Same read-out and setting: then B10, with “no binding (tested: 4 µg/mL)”; and B11, with “no binding (tested: 4 µg/mL)”; and B12, with “no binding (tested: 4 µg/mL)”.
Still for that read-out and setting: in the case of B13 it was “no binding (tested: 4 µg/mL)”; in that of B14, “no binding (tested: 4 µg/mL)”.
Same read-out and setting: in the case of B15 it was “no binding (tested: 4 µg/mL)”.
